Results from PubChem BioAssay AID588591 (National Center for Advancing Translational Sciences (NCATS), 2011).
Out of some 390,000 compounds screened, about 4,700 (1.2%) were called active. Inconclusive means that the source gave no clear call. Such entries were picked first, then a sample of the others. Calls come from the whole dose curve; as a rule, active = well fitted inhibition curve with a large enough effect; inconclusive = small, poorly fitted or top-dose-only effect, or another doubt; inactive = no such curve, though single readings can be large or run the other way. Where the call is inconclusive, the potency comes from a doubtful curve fit.
Potency is the fitted concentration of half-maximal effect; tags give direction and shape of the fitted curve.

What follows are molecules tested against DNA polymerase eta (Homo sapiens) (UniProt Q9Y253) (assay: qHTS for Inhibitors of Polymerase Eta). Details: recombinant Pol eta, fluorescent DNA replication assay; series mostly up to 114 µM.
Chain of UniProt Q9Y253 (Q9Y253 whole entry, looked up): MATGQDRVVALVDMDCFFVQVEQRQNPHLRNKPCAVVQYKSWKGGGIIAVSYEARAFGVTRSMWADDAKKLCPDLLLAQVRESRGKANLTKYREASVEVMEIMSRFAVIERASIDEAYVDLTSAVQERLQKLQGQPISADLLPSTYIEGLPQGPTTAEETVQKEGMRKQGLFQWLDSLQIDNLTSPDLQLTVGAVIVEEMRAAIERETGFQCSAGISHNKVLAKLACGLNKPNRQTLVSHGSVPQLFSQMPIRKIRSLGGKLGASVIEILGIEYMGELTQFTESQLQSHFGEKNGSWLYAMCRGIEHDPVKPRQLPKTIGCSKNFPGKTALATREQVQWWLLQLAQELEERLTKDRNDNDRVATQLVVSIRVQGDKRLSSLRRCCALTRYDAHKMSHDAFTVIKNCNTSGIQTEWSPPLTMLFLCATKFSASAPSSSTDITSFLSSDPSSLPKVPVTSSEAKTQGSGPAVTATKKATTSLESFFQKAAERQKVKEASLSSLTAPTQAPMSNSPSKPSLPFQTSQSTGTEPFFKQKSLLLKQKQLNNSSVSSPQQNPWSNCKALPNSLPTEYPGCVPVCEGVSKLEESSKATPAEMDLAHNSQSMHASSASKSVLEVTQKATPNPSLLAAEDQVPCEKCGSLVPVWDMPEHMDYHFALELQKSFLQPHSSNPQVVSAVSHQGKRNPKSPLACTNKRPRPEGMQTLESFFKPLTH
In short: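 Fluorescent replication assay: 50 nM final substrate added after a 15 min room-temperature compound preincubation with 10 nM enzyme. Signal taken at 0 min and again at 10 min.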
In the case of `Cn1c(=O)c2c(SCC(=O)NCC3CCCO3)nc(-c3cccc(F)c3)nc2n(C)c1=O` (configuration not stated), the Potency was “inactive”. With `COc1cccc(/C=N/NC(=O)c2ccc(=O)n(C)c2)c1O` the Potency was inconclusive: 100 µM [inhibitor, partial curve, poor fit]. `O=C1/C(=C/c2cccnc2)CCC/C1=C\c1cccnc1` was tested, and the Potency was active: 22.4 µM. `O=C(Nc1ccc(F)cc1)c1cc2c(s1)CCCC2` was tested, and the Potency was “inactive”. For `CN1CCC[C@H]1CCNc1ccc2c(=O)c3ccccc3n(C)c2c1`, the Potency was inconclusive: 89.1 µM [inhibitor, partial curve, poor fit]. In the case of `CC(=O)c1cccc(NC(=O)COC(=O)CCC(=O)c2cccs2)c1`, the Potency was inconclusive: 3.55 µM [inhibitor, full curve, poor fit]. For `N#CCSc1nnc(COc2cccc3ccccc23)n1-c1cccc(Cl)c1`, the Potency was inconclusive: 3.98 µM [inhibitor, partial curve, poor fit]. For `CN(C)C(CN=C1NS(=O)(=O)c2ccccc21)c1ccco1` (configuration not stated), the Potency was “inactive”. In the case of `C=C1C(=O)c2sccc2C(c2ccc(OC)c(OC)c2)C1COC(C)=O` (configuration not stated), the Potency was inconclusive: 20 µM [inhibitor, partial curve, poor fit]. In the case of `COc1ccc(-c2nn(-c3ccccc3)cc2C(=O)NC(=S)NNC(=O)c2ccncc2)cc1`, the Potency was inconclusive: 100 µM [inhibitor, partial curve, poor fit]. `O=C(CSc1nnc(Cc2csc(Nc3cccc(Cl)c3)n2)o1)N1CCc2ccccc21` was tested, and the Potency was inconclusive: 12.6 µM [inhibitor, full curve, poor fit]. For `COc1cc([N+](=O)[O-])cc(/C=N/NC(=O)Cn2cncn2)c1O`, the Potency was “inactive”. For `COc1ccc(Nc2nnc(SCC(=O)/C=C3/N(C)c4ccccc4C3(C)C)s2)cc1`, the Potency was inconclusive: 89.1 µM [inhibitor, partial curve, poor fit]. In the case of `O=C(/C=C/c1ccccc1)c1ccc(NC2=NCCCS2)cc1`, the Potency was inconclusive: 39.8 µM [inhibitor, partial curve, poor fit]. In the case of `CCOC(=O)c1c(C)[nH]c(C(=O)OCC(=O)Nc2sccc2C(N)=O)c1C`, the Potency was inconclusive: 15.8 µM [inhibitor, partial curve, poor fit]. For `Cc1ccc(N2CC(C(=O)Nc3cccc(C(=O)NC4CC4)c3)CC2=O)cc1` (configuration not stated), the Potency was active: 35.5 µM. With `COc1ccc(NC(=O)CN(C)C(=O)c2oc3c(ccc4ccccc43)c2C)cc1` the Potency was inconclusive: 44.7 µM [inhibitor, partial curve, poor fit]. For `CCc1ccc(Nc2nnc(SCC(=O)Nc3sccc3C(N)=O)s2)cc1`, the Potency was inconclusive: 20 µM [inhibitor, partial curve, poor fit]. For `Cc1cc(C)n2nc(SCC(=O)c3ccc[nH]3)nc2n1`, the Potency was inconclusive: 22.4 µM [inhibitor, partial curve, poor fit]. In the case of `O=C(COc1coc(CN2CCc3ccccc32)cc1=O)Nc1ccc([N+](=O)[O-])cc1`, the Potency was inconclusive: 22.4 µM [inhibitor, partial curve, poor fit]. In the case of `O=C(N/N=C/c1ccco1)c1cc(-c2ccccc2)n[nH]1`, the Potency was inconclusive: 39.8 µM [inhibitor, single point]. With `COC(=O)c1ccccc1NC(=O)CSc1nc(N)cc(=O)[nH]1` the Potency was active: 17.8 µM. For `CC1CCN(C(=O)c2nc[nH]c2C(=O)N2CCc3ccccc3C2)CC1`, the Potency was “inactive”. `CC(C)c1ccc(/C=C/c2[nH]c(=O)[nH]c(=O)c2[N+](=O)[O-])cc1` was tested, and the Potency was inconclusive: 50.1 µM [inhibitor, partial curve]. In the case of `COC(=O)c1c(C)oc2ccc(NS(=O)(=O)c3cccs3)cc12`, the Potency was inconclusive: 14.1 µM [inhibitor, partial curve, poor fit]. With `CCC(Sc1nc2ccccc2c2nc(CCc3c(C)n[nH]c3C)nn12)C(=O)Nc1ccc(OC)cc1` (configuration not stated) the Potency was inconclusive: 100 µM [inhibitor, partial curve, poor fit]. With `CCN(CC(=O)Nc1ccc(OC)cc1)C(=O)Cc1cccs1` the Potency was active: 56.2 µM. For `COc1ccccc1/C=C(/C(=O)OCC(=O)NCc1ccccc1)c1ccccc1`, the Potency was inconclusive: 0.398 µM [inhibitor, partial curve, poor fit]. `CCN(CC)C(=O)COc1ccc2oc(-c3ccco3)cc(=O)c2c1` was tested, and the Potency was inconclusive: 28.2 µM [inhibitor, partial curve]. In the case of `COc1cc(/C=C2\CC/C(=C\c3ccc(OCCO)c(OC)c3)C2=O)ccc1OCCO`, the Potency was inconclusive: 8.91 µM [inhibitor, partial curve, poor fit]. `O=C(O)c1ccccc1N=Nc1c(O)[nH]c2ccc([N+](=O)[O-])cc12` was tested, and the Potency was active: 22.4 µM. With `Cc1cc(C(=O)COC(=O)CC(NC(N)=O)c2ccc(Cl)cc2)c(C)n1C` (configuration not stated) the Potency was “inactive”. In the case of `C[C@H](CO)N1C[C@H](C)[C@@H](CN(C)Cc2ccc(Cl)c(Cl)c2)Oc2c(NS(=O)(=O)c3cccs3)cccc2C1=O`, the Potency was inconclusive: 100 µM [inhibitor, partial curve, poor fit]. In the case of `CCOc1ccc(-c2nn(-c3ccccc3)cc2C2NC(=O)NC(C)=C2C(=O)OC(C)C)cc1C` (configuration not stated), the Potency was inconclusive: 50.1 µM [inhibitor, partial curve, poor fit]. With `O=C(Nc1ccc(F)cc1F)c1csc(-c2ccccc2)n1` the Potency was inconclusive: 100 µM [inhibitor, single point]. With `CC(C)(C)NC(=O)COC(=O)c1c2c(nc3ccccc13)CCC2` the Potency was active: 50.1 µM. With `COc1ccccc1NC(=O)c1coc(=O)c(Br)c1` the Potency was inconclusive: 56.2 µM [inhibitor, partial curve, poor fit]. For `COc1cc(/C=N/N2CCN(C3c4ccccc4-c4ccccc43)CC2)cc(OC)c1OC`, the Potency was inconclusive: 89.1 µM [inhibitor, partial curve, poor fit]. `CC(=NCCCn1ccnc1)c1c(-c2ccccc2)[nH]n(-c2nc3ccccc3s2)c1=O` was tested, and the Potency was inconclusive: 89.1 µM [inhibitor, single point]. With `CC1OC(Oc2c(-c3cc(O)c(O)c(O)c3)oc3cc(O)cc(O)c3c2=O)C(O)C(O)C1O` (configuration not stated) the Potency was inconclusive: 31.6 µM [inhibitor, partial curve, poor fit]. In the case of `CCC(Cc1ccccc1)NC(=O)/C=C/c1ccco1` (configuration not stated), the Potency was inconclusive: 28.2 µM [inhibitor, single point]. With `COc1ccc(CCn2c(N)c(C#N)c3nc4ccccc4nc32)cc1OC` the Potency was inconclusive: 17.8 µM [inhibitor, single point]. In the case of `CCOc1ccc(-c2cn3c(n2)sc2cc(C(=O)NCCCN(CC)CC)ccc23)cc1`, the Potency was inconclusive: 44.7 µM [inhibitor, partial curve]. `CC(=O)C1=C(C)NC(SCc2ccc(C#N)cc2)=C(C#N)C1c1ccco1` (configuration not stated) was tested, and the Potency was inconclusive: 39.8 µM [inhibitor, partial curve, poor fit]. In the case of `COc1ccc(Cn2ccnc2SCC(=O)Nc2cc(C(F)(F)F)ccc2Cl)cc1`, the Potency was inconclusive: 50.1 µM [inhibitor, partial curve, poor fit]. With `Cc1ccccc1Cn1ccc(NC(=O)c2nc3ncccn3n2)n1` the Potency was inconclusive: 89.1 µM [inhibitor, partial curve, poor fit]. `Cc1ccnc2nc(C(=O)N3CCN(c4ccc(F)cc4)CC3)nn12` was tested, and the Potency was inconclusive: 35.5 µM [inhibitor, partial curve, poor fit]. In the case of `Cc1no[n+]([O-])c1COc1ccc(/C=C2\NC(=S)NC2=O)cc1`, the Potency was inconclusive: 15.8 µM [inhibitor, partial curve, poor fit]. With `COc1ccc(NC(=O)C2CCCN(S(=O)(=O)c3ccc4c(c3)CCCN4C(C)=O)C2)cc1` (configuration not stated) the Potency was “inactive”. `CC1=C(C(=O)OC(C)C)C(c2ccc(C)o2)C(C(=O)OC(C)C)=C(C)N1` was tested, and the Potency was “inactive”. For `CC1=CSC2=NC(=O)/C(=C\c3cccn3-c3ccc([N+](=O)[O-])cc3)C(=N)N12`, the Potency was inconclusive: 28.2 µM [inhibitor, partial curve, poor fit]. For `O=c1cc(-c2ccc(O)c(O)c2)oc2cc(O)c(C3OC(CO)C(O)C(O)C3O)c(O)c12` (configuration not stated), the Potency was active: 3.16 µM. `Cc1ccc(S(=O)(=O)CCC(=O)OCC(=O)N2c3ccccc3NC(=O)C2(C)C)cc1` was tested, and the Potency was inconclusive: 17.8 µM [inhibitor, full curve, poor fit]. In the case of `CCOc1ccc(C(C(=O)NCC2CCCO2)N(CCc2cccc(C)c2)C(=O)c2snc(C(N)=O)c2N)cc1` (configuration not stated), the Potency was inconclusive: 50.1 µM [inhibitor, partial curve, poor fit]. `O=C(CSc1nc2ccccc2c(=O)[nH]1)c1cccs1` was tested, and the Potency was “inactive”. With `CC1CCCCC12NC(=O)N(CC(=O)Nc1sc3c(c1C(N)=O)CCC3)C2=O` (configuration not stated) the Potency was active: 17.8 µM. For `CC(=O)N1CCc2cc(S(=O)(=O)CCC(=O)NCc3ccc4c(c3)OCO4)ccc21`, the Potency was inconclusive: 20 µM [inhibitor, partial curve]. `O=C1CC(c2nnc(Cc3ccccc3Cl)o2)CN1c1ccccc1` (configuration not stated) was tested, and the Potency was “inactive”. In the case of `CCOC(=O)c1cccc(C2=CC(=O)C[C@H](c3ccc(Cl)cc3)C2)c1`, the Potency was inconclusive: 79.4 µM [inhibitor, partial curve, poor fit]. `Cc1ccc(C)c(Cn2c(=O)n(CCCCCC(=O)NCc3ccc4c(c3)OCO4)c(=O)c3sccc32)c1` was tested, and the Potency was “inactive”. In the case of `O=C(COC(=O)COc1ccc(Nc2ccccc2)cc1)NCc1ccco1`, the Potency was inconclusive: 31.6 µM [inhibitor, single point]. For `COc1cc(/C=C2\SC(=S)N(NC(=O)c3ccc(O)c(OC)c3)C2=O)ccc1O`, the Potency was inconclusive: 50.1 µM [inhibitor, partial curve, poor fit].
